Source: a collection of fitness landscapes (doi:10.1016/j.celrep.2020.107928)
The full ranking holds about 81,000 sequences; the median of “one-hybrid fitness for binding parS DNA” is about -0.17, and the highest 2% start at about 0.51. Some of the results follow.

B1: Caulobacter ParB omega fusion; a variant is named by its letters at X, in order, B8GW30 (parent)
chain: MESVVVGEPGMSEGRRGLGRGLSALLGEVDAAPAQAPGEQLGGSREAPIEILQRNPDQPRRTFREEDLEDLSNSIREKGVLQPILVRPSPDTAGEYQIVAGERAWRAAQRAGLKTVPIMVRELDDLAVLEIGIIENVQRADLNVLEEALSYKVLMEKFERTQENIAQTIGKSXSHVANXMRLLXLPDEVQSYLVSGELTAXHARAIAAAADPVALAKQIIEGGLSVRETEALARKAPNLSAGKSKGGRPPRVKDTDTQALESDLSSVLGLDVSIDHRGSTGTLTITYATLEQLDDLCNRLTRGI

Variants of: B1
Assay: one-hybrid fitness for binding parS DNA (scaled: cognate 1, non-cognate 0); higher = stronger binding
Settings: with parS DNA site
In short: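 Fitness here means the log change in variant-to-wild-type read ratio between plasmids sequenced before and after selection. That scale was set so cognate equals 1 and non-cognate equals 0. The selection was a bacterial one-hybrid screen of Caulobacter ParB libraries, four specificity codons randomised, in E. coli USO carrying a HIS3 reporter with the site 19 bp from the promoter, grown 48 hours at 37°C on M9-minus-histidine with 0.1 mM IPTG and 5 mM 3-AT.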

Variant	one-hybrid fitness for binding parS DNA
HTYY	≤ 0.2
SGLA	≤ 0.2
GETM	≤ 0.2
SECA	≤ 0.2
TDPE	≤ 0.2
PREF	≤ 0.2
FATR	≤ 0.2
KLNC	≤ 0.2
VMYV	≤ 0.2
QAVC	≤ 0.2
SKVS	≤ 0.2
SHFS	≤ 0.2
VQPM	≤ 0.2
RYVA	0.508
SLMT	≤ 0.2
LTNH	≤ 0.2
ETGL	≤ 0.2
LLDG	≤ 0.2
GRGR	≤ 0.2
TLIV	≤ 0.2
YPTG	≤ 0.2
HWLK	≤ 0.2
HHTM	≤ 0.2
PQLY	≤ 0.2
LHMT	≤ 0.2

Variant	one-hybrid fitness for binding parS DNA
DTTR	≤ 0.2
AHPD	≤ 0.2
CSVT	≤ 0.2
KINT	≤ 0.2
FTST	≤ 0.2
YQQY	≤ 0.2
ESPW	≤ 0.2
IIMK	≤ 0.2
AIIL	≤ 0.2
MSRC	≤ 0.2
IRGC	≤ 0.2
LDFW	≤ 0.2
APHG	≤ 0.2
DFNM	≤ 0.2
LCRT	≤ 0.2
GADW	≤ 0.2
GQWK	≤ 0.2
VLMY	≤ 0.2
RRPN	0.246
KRNK	≤ 0.2
IRNY	≤ 0.2
QEKV	≤ 0.2
ASTN	≤ 0.2
QSFH	≤ 0.2
TSGV	≤ 0.2

Variant	one-hybrid fitness for binding parS DNA
RMVW	0.23
KHWT	≤ 0.2
RPTG	≤ 0.2
DLFG	≤ 0.2
NIPN	≤ 0.2
SHSF	≤ 0.2
RSYS	1.01
SKTQ	≤ 0.2
RACN	0.41
LCKT	≤ 0.2
DTFT	≤ 0.2
CTNS	≤ 0.2
NNVL	≤ 0.2
PFIS	≤ 0.2
NVLC	≤ 0.2
AFCR	≤ 0.2
CALS	≤ 0.2
ECNV	≤ 0.2
DTPG	≤ 0.2
QTYS	≤ 0.2
PQKG	≤ 0.2
REVE	≤ 0.2
KREG	≤ 0.2
HWKA	≤ 0.2
SRGI	≤ 0.2

Variant	one-hybrid fitness for binding parS DNA
PHKW	≤ 0.2
GVTM	≤ 0.2
DPRP	≤ 0.2
PHWS	≤ 0.2
NTER	≤ 0.2
GRDD	≤ 0.2
LKLG	≤ 0.2
KRYR	≤ 0.2
LHKG	≤ 0.2
KLGY	≤ 0.2
IEHR	≤ 0.2
KNAT	≤ 0.2
QTYC	≤ 0.2
SCCS	≤ 0.2
KYLW	≤ 0.2
LMNR	≤ 0.2
QHVV	≤ 0.2
VPGR	≤ 0.2
QVLE	≤ 0.2
NVAG	≤ 0.2
GDTF	≤ 0.2
PRHG	≤ 0.2
SRMV	≤ 0.2
